# Data from the supplement of paper PMC8728848.
# Some of the results follow.
# How the values were obtained:
# Assay in all cases: glycan array binding signal (z-score within array); higher = stronger binding
# Conditions in all cases: glycan notation: IUPAC condensed, linker removed; mutation: E41A
# Neu5Ac(a2-8)Neu5Ac = molecular target: Neu5Ac(a2-8)Neu5Ac
# Procedure, shortened: (§1)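 Glycan array data were curated from 3228 arrays in the Consortium for Functional Glycomics database and kept only where the protein sequence was available. Glycan names were converted to IUPAC-condensed notation, and columns mapping to the same glycan were averaged. The binding signal is a within-array Z-score, averaged across arrays of the same protein sequence at different concentrations or buffers and across linkers. Negative Z-scores can be read as non-binding.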
# [1] = molecular target: Neu5Ac(a2-8)Neu5Ac(a2-3)Gal(b1-3)GalNAc(b1-4)[Neu5Ac(a2-3)]Gal(b1-4)Glc
# Procedure, shortened: as §1
# [2] = molecular target: Neu5Ac(a2-8)Neu5Ac(a2-3)Gal(b1-3)GalNAc(b1-4)[Neu5Ac(a2-8)Neu5Ac(a2-3)]Gal(b1-4)Glc
# Procedure, shortened: as §1
# [3] = molecular target: Neu5Ac(a2-8)Neu5Ac(a2-3)Gal(b1-4)Glc
# Procedure, shortened: as §1
# [4] = molecular target: Neu5Ac(a2-8)Neu5Ac(a2-3)Gal(b1-4)GlcNAc
# Procedure, shortened: as §1
# [5] = molecular target: Neu5Ac(a2-8)Neu5Ac(a2-3)[Gal(b1-3)GalNAc(b1-4)]Gal(b1-4)Glc
# Procedure, shortened: as §1
# [6] = molecular target: Neu5Ac(a2-8)Neu5Ac(a2-3)[GalNAc(b1-4)]Gal(b1-4)Glc
# Procedure, shortened: as §1
# [7] = molecular target: Neu5Ac(a2-8)Neu5Ac(a2-8)Neu5Ac
# Procedure, shortened: as §1
# [8] = molecular target: Neu5Ac(a2-8)Neu5Ac(a2-8)Neu5Ac(a2-3)Gal(b1-4)Glc
# Procedure, shortened: as §1
# [9] = molecular target: Neu5Ac(a2-8)Neu5Ac(a2-8)Neu5Ac(a2-3)[Gal(b1-3)GalNAc(b1-4)]Gal(b1-4)Glc
# Procedure, shortened: as §1
# [10] = molecular target: Neu5Ac(a2-8)Neu5Ac(a2-8)Neu5Ac(a2-3)[GalNAc(b1-4)]Gal(b1-4)Glc
# Procedure, shortened: as §1
# [11] = molecular target: Neu5Ac(a2-8)Neu5Ac(a2-8)Neu5Ac(a2-8)Neu5Ac(a2-3)[GalNAc(b1-4)]Gal(b1-4)Glc
# Procedure, shortened: as §1
# [12] = molecular target: Neu5Ac(a2-8)Neu5Gc(a2-3)Gal(b1-4)GlcNAc
# Procedure, shortened: as §1
# [13] = molecular target: Neu5Ac(b2-6)Gal(b1-4)GlcNAc
# Procedure, shortened: as §1
# Neu5Ac(b2-6)GalNAc = molecular target: Neu5Ac(b2-6)GalNAc
# Procedure, shortened: as §1
# [14] = molecular target: Neu5Ac9Ac(a2-3)Gal(b1-3)GlcNAc
# Procedure, shortened: as §1
# [15] = molecular target: Neu5Ac9Ac(a2-3)Gal(b1-4)GlcNAc
# Procedure, shortened: as §1
# [16] = molecular target: Neu5Ac9Ac(a2-6)Gal(b1-4)GlcNAc
# Procedure, shortened: as §1
# [17] = molecular target: Neu5Gc(a2-3)Gal(b1-3)GlcNAc
# Procedure, shortened: as §1
# [18] = molecular target: Neu5Gc(a2-3)Gal(b1-3)[Fuc(a1-4)]GlcNAc
# Procedure, shortened: as §1
# Neu5Gc(a2-3)Gal(b1-4)Glc = molecular target: Neu5Gc(a2-3)Gal(b1-4)Glc
# Procedure, shortened: as §1
# [19] = molecular target: Neu5Gc(a2-3)Gal(b1-4)GlcNAc
# Procedure, shortened: as §1
# [20] = molecular target: Neu5Gc(a2-3)Gal(b1-4)GlcNAc(b1-3)Gal(b1-4)GlcNAc(b1-2)Man(a1-3)[Neu5Gc(a2-3)Gal(b1-4)GlcNAc(b1-3)Gal(b1-4)GlcNAc(b1-2)Man(a1-6)]Man(b1-4)GlcNAc(b1-4)GlcNAc
# Procedure, shortened: as §1
# [21] = molecular target: Neu5Gc(a2-3)Gal(b1-4)[Fuc(a1-3)]GlcNAc
# Procedure, shortened: as §1
# [22] = molecular target: Neu5Gc(a2-6)Gal(b1-4)GlcNAc
# Procedure, shortened: as §1
# Neu5Gc(a2-6)GalNAc = molecular target: Neu5Gc(a2-6)GalNAc
# Procedure, shortened: as §1
# [23] = molecular target: Neu5Gc(a2-8)Neu5Ac(a2-3)Gal(b1-4)GlcNAc
# Procedure, shortened: as §1
# [24] = molecular target: Neu5Gc(a2-8)Neu5Gc(a2-3)Gal(b1-4)GlcNAc
# Procedure, shortened: as §1
# [25] = molecular target: Neu5Gc(a2-8)Neu5Gc(a2-3)Gal(b1-4)GlcNAc(b1-3)Gal(b1-4)GlcNAc
# Procedure, shortened: as §1
# [26] = molecular target: Neu5Gc(a2-8)Neu5Gc(a2-6)Gal(b1-4)GlcNAc
# Procedure, shortened: as §1
# [27] = molecular target: Neu5Gc(b2-6)Gal(b1-4)GlcNAc
# Procedure, shortened: as §1
binder,measurement,setting,value
CVN-E41G (protein) MHHHHHHENLYFQSGNFSQACYNSAIQGSVLTSTCIRTNGGYNTSSIDLNSVIANVDGSLKWQGSNFIETCRNTQLAGSSELAAECKTRAQQFVSTKINLDDHIAAIDGTLKYE,glycan array binding signal (z-score),Neu5Ac(a2-8)Neu5Ac,-0.195
same,glycan array binding signal (z-score),[1],-0.161
same,glycan array binding signal (z-score),[2],0.292
same,glycan array binding signal (z-score),[3],-0.193
same,glycan array binding signal (z-score),[4],-0.207
same,glycan array binding signal (z-score),[5],-0.211
same,glycan array binding signal (z-score),[6],-0.23
same,glycan array binding signal (z-score),[7],-0.229
same,glycan array binding signal (z-score),[8],-0.226
same,glycan array binding signal (z-score),[9],-0.232
same,glycan array binding signal (z-score),[10],-0.211
same,glycan array binding signal (z-score),[11],-0.209
same,glycan array binding signal (z-score),[12],-0.228
same,glycan array binding signal (z-score),[13],-0.245
same,glycan array binding signal (z-score),Neu5Ac(b2-6)GalNAc,-0.24
same,glycan array binding signal (z-score),[14],-0.163
same,glycan array binding signal (z-score),[15],-0.224
same,glycan array binding signal (z-score),[16],-0.236
same,glycan array binding signal (z-score),[17],-0.221
same,glycan array binding signal (z-score),[18],-0.199
same,glycan array binding signal (z-score),Neu5Gc(a2-3)Gal(b1-4)Glc,-0.01
same,glycan array binding signal (z-score),[19],-0.223
same,glycan array binding signal (z-score),[20],-0.233
same,glycan array binding signal (z-score),[21],-0.15
same,glycan array binding signal (z-score),[22],0.013
same,glycan array binding signal (z-score),Neu5Gc(a2-6)GalNAc,-0.18
same,glycan array binding signal (z-score),[23],-0.216
same,glycan array binding signal (z-score),[24],-0.226
same,glycan array binding signal (z-score),[25],-0.215
same,glycan array binding signal (z-score),[26],-0.207
same,glycan array binding signal (z-score),[27],-0.228
